# Assay results from PubChem BioAssay AID1865 (National Center for Advancing Translational Sciences (NCATS), 2009).
# In all, about 280,000 compounds went through this assay and about 540 (0.19%) were called active. Inconclusive means that the source gave no clear call. Such entries were picked first, then a sample of the others. Calls come from the whole dose curve; as a rule, active = well fitted activation curve with a large enough effect; inconclusive = small, poorly fitted or top-dose-only effect; inactive = flat fitted curve, though single readings scatter. Potencies beside an inconclusive call are fits to weak or partial responses and may not hold up.
# Assay: Quantitative High-Throughput Screen for Regulators of Epigenetic Control; note: nearly all actives have a fitted effect of over 60% in size; for GFP activation: % of control where 0% means no effect
# Settings: murine LDR cells, GFP reporter derepression, 30 h; GFP activation: at 53.9 µM (top of the series)
# Outline: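 Derepression of a silenced CMV-GFP reporter in murine LDR cells is scored by enumerating GFP-positive cells with a laser-scanning microplate cytometer after 30 hours of treatment at 37 C.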
# Potency is the fitted concentration of half-maximal effect; tags give direction and shape of the fitted curve.
Compound,GFP activation,Potency
CCn1cc(/C=C/C(=O)Nc2c(C)nn(Cc3ccccc3)c2C)cn1,inactive: 0.971%,–
O=C(Cc1ccc(Cl)cc1)c1c(O)cc(O)cc1O,inactive: -0.828%,–
Cc1ccc(-c2csc(NC(=O)Cc3ccc(F)cc3)n2)o1,–,"inconclusive: 35.5 µM [activator, single point]"
COc1ccc2cc(/C=N/NC(=O)CN(c3ccccc3)S(=O)(=O)c3ccccc3)c(Cl)nc2c1,–,"inconclusive: 28.2 µM [activator, single point]"
CCNc1ccc(Br)cc(C(=O)/C=C/c2ccc(Cl)cc2Cl)c1=O,–,"inconclusive: 31.6 µM [activator, single point]"
CCOc1ccc(Nc2nc(N)c(C(=O)c3ccccc3Cl)s2)cc1,–,"inconclusive: 3.98 µM [activator, single point]"
CCOC(=O)N1CCC(NC(=O)c2ccc3c(c2)N(Cc2ccccc2)C(=O)c2ccccc2S3(=O)=O)CC1,inactive: 5.28%,–
CC(=O)Nc1cccc(C(=O)/C=C/c2ccc(F)cc2)c1,–,"inconclusive: 28.2 µM [activator, single point]"
O=C(c1coc(=O)c(Br)c1)N1CCC(C(O)(c2ccccc2)c2ccccc2)CC1,–,"inconclusive: 25.1 µM [activator, single point]"
Cc1cccc(-n2c(=O)[nH]c3c(C(N)=O)nc(C(C)C)nc32)c1,inactive: -0.833%,–
CCOC(=O)/C(=C/c1ccc(OC(=O)c2ccccc2)cc1)C(C)=O,–,"inconclusive: 31.6 µM [activator, single point]"
c1ccc(-c2cc(-c3ccccc3)n3ncnc3n2)cc1,inactive: 0.0725%,–
CCOc1cc([C@@H]2C[C@H]3CN(c4ccccc4)C(=O)[C@]34CCCN24)ccc1OC,–,"inconclusive: 12.6 µM [activator, single point]"
O=C(Cc1ccc(-c2ccccc2)cc1)NCCS(=O)(=O)N1CCN(c2cccc(Cl)c2)CC1,inactive: 6.15%,–
CCOC(=O)c1c(-c2ccccc2)csc1NC(=S)N(CC)CC,inactive: -0.99%,–
Cn1nnnc1N=N/C(=N/Nc1ccccc1)c1ccccc1,–,"inconclusive: 35.5 µM [activator, single point]"
O=C1C(=Cc2ccc(Br)o2)C(=O)c2ccccc21,–,"inconclusive: 22.4 µM [activator, single point]"
COc1ccc(NC(=O)Cn2nnc(C(=O)NCc3ccccc3Cl)c2N)cc1Cl,inactive: 0%,–
CCCN1C(=O)/C(=C/C=C2\N(CC)c3ccccc3C2(C)C)SC1=S,–,active: 3.16 µM
CCCCn1c(/C=C/c2ccco2)nc2ccccc21,–,"inconclusive: 28.2 µM [activator, single point]"
O=C(Cn1c(=O)n(Cc2ccccc2)c(=O)c2oc3ccccc3c21)Nc1ccc(Cl)cc1,–,"inconclusive: 22.4 µM [activator, single point]"
CC(=O)n1cc([C@H]2C=C(C(=O)Nc3ccccc3)O[C@@H](OCc3ccc(CO)cc3)C2)c2ccccc21,–,"inconclusive: 35.5 µM [activator, single point]"
CCCN1C(=O)S/C(=C/c2ccc(N3CCOCC3)o2)C1=O,–,active: 10 µM

Compound,GFP activation,Potency
Cc1ccc(CCNc2nc3c(S(=O)(=O)c4ccc(C)cc4)nnn3c3ccsc23)cc1,inactive: 3.86%,–
CCS(=O)(=O)NCC(c1ccco1)N1CCN(c2ccc(OC)cc2)CC1 (stereo not given),–,"inconclusive: 0.0355 µM [activator, full curve, poor fit]"
CC(C)CNS(=O)(=O)c1ccc(C(=O)Nc2ccc3c(c2)OCCO3)cc1,inactive: -1.03%,–
CCCCn1nc(NC(=O)c2cccs2)c2cc3ccccc3nc21,–,"inconclusive: 14.1 µM [activator, single point]"
Nc1cc(=O)[nH]c(SCC(=O)Nc2cc([N+](=O)[O-])ccc2Cl)n1,–,"inconclusive: 6.31 µM [activator, single point]"
COc1ccc2c(C)cc(SCC(=O)Nc3cccnc3Cl)nc2c1,–,"inconclusive: 15.8 µM [activator, single point]"
Cc1nc(SCC(=O)c2cc3ccccc3oc2=O)c(C#N)c(-c2cccs2)c1C(=O)Nc1ccccc1,inactive: 0.463%,–
Clc1ccc2nc(-c3ccc(Br)o3)c(Nc3ccc4c(c3)OCCO4)n2c1,–,"inconclusive: 35.5 µM [activator, single point]"
CCC1c2ccc(C)n2CCN1C(=O)Nc1cc(Cl)ccc1OC (stereo not given),–,"inconclusive: 12.6 µM [activator, single point]"
CCOC(=O)Cc1csc(NC(=S)NC(=O)c2cc(OC)cc(OC)c2)n1,inactive: 2.6%,–
COC(=O)/C(=C1/Oc2cc(C)oc(=O)c2S1)C(F)(F)F,–,"inconclusive: 6.31 µM [activator, single point]"
Cc1ccc(C)c(/C=C/C(=O)c2ccccc(=O)c2O)c1,–,"inconclusive: 28.2 µM [activator, single point]"
Fc1ccc(CNc2nc3ccc(Cl)cc3n3nnnc23)cc1,–,"inconclusive: 25.1 µM [activator, single point]"
CSc1nn(Cc2ccc(Br)cc2)c(N(C(C)=O)C(C)=O)c1S(=O)(=O)c1ccccc1,inactive: -1.77%,–
Cc1ccc(-c2nn(CCC(=O)Nc3cccnc3)c(=O)c3ccccc23)cc1,inactive: -0.295%,–
CCc1cccc(NCc2ccccc2-c2nnc(-c3ccccc3Cl)o2)c1,inactive: 7.13%,–
NC(=O)CC(NC(=O)c1ccccc1)c1ccc(NCCc2ccc(F)cc2)c([N+](=O)[O-])c1 (stereo not given),–,"inconclusive: 31.6 µM [activator, single point]"
CC(=O)/C(=N\Nc1ccc(Cl)cc1Cl)Sc1cccc2cccnc12,–,"inconclusive: 3.55 µM [activator, single point]"
CC1(C)Cc2ccccc2C(=O)N1,inactive: -0.438%,–
COc1ccccc1CNC(=O)c1cccc(Nc2nc3ccccc3n3nnnc23)c1,–,"inconclusive: 11.2 µM [activator, partial curve]"
CO[C@H]1COC(=O)[C@H](C)NC(=O)C/C=C\[C@@H](C)[C@H](OC)COC(=O)C/C=C\[C@@H]1C,inactive: 0% [at 10.1 µM],–
O=C(CC1(O)C(=O)N(CCc2ccccc2)c2ccc(Br)cc21)c1ccccc1O (stereo not given),–,"inconclusive: 35.5 µM [activator, single point]"
